# According to the supplement of paper PMC3334620:
# The full ranking holds about 33,000 sequences; the median of “E-score (-0.5 to 0.5)” is about -0.012, and the highest 2% start at about 0.29. The list shows a part of the results.
# Target: T1, Ybr033w (UniProt P38073)
# T1 sequence: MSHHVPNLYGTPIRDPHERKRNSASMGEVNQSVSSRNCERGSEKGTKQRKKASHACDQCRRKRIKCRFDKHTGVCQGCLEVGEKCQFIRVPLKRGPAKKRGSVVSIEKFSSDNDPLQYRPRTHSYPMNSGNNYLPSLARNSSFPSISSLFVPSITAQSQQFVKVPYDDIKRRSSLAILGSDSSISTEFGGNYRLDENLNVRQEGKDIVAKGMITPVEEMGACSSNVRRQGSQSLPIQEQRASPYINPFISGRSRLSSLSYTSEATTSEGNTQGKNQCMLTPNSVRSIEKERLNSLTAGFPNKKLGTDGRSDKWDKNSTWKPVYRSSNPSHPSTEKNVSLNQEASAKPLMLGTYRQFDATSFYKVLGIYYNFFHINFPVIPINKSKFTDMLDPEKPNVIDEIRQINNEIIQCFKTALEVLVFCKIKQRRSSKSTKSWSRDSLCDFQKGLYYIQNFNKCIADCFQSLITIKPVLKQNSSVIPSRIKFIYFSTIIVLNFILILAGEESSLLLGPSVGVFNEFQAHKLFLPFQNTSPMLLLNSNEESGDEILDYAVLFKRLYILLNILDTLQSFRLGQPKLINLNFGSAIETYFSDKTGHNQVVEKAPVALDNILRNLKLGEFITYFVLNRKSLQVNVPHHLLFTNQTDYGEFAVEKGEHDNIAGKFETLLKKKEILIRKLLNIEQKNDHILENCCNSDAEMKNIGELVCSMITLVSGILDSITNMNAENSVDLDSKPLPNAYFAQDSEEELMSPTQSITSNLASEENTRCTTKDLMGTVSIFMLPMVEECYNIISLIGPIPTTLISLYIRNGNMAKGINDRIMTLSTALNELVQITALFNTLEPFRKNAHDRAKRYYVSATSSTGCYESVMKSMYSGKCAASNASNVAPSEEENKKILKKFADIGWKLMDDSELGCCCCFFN
# Experiment: PBM E-score (8-mer binding enrichment) (E-score (-0.5 to 0.5)); higher = stronger / more preferred TF binding; most listed sequences are background and not binding sites
# Details: protein concentration: 200 nM; construct: GST-full length
# Description: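 Universal 'all 10-mer' protein binding microarrays (Agilent AMADID 015681) probed with GST-tagged S. cerevisiae TFs (full-length or DBD) made by in vitro transcription/translation (PURExpress), about 100-200 nM. Bound TF was detected with fluorescent anti-GST. Each ungapped 8-mer (which stands for itself and its reverse complement) is scored by the PBM enrichment score (E-score), a modified Wilcoxon-Mann-Whitney statistic from -0.5 to +0.5, computed with the Universal PBM Analysis Suite. Scale: above 0.35 generally sequence-specific binding.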
row,Sequence,PBM E-score
1,ACTGTCCC,-0.204
2,TAGTCGCA,0.0305
3,CGAATGCG,0.112
4,AAGGATGG,-0.136
5,ATCGACCC,0.00901
6,GGCTGTAC,-0.194
7,GGGCTGCA,-0.21
8,GGTAATGA,0.0887
9,CAAATTAG,0.0918
10,AAATGTTA,0.149
11,GATGCGGA,-0.0741
12,CGTCCGCC,-0.169
13,ATAATACC,0.187
14,GTCTCTCA,-0.0154
15,CCAGATCA,0.0669
16,GGGTGCAC,-0.337
17,CCTGGAAC,-0.068
18,AGGTCAAC,-0.0296
19,GCTAGAAC,-0.0465
20,ATCGTCGA,-0.0364
21,CCTGGCCA,-0.245
22,CCCCCAAA,-0.26
23,CCTCTGAG,-0.205
24,TACCGCAA,0.0331
25,ACACGTTG,-0.052

row,Sequence,PBM E-score
1,ACATCCCC,-0.178
2,AGAAACGA,0.151
3,ATGCCCCG,-0.215
4,GAGATCGC,-0.00988
5,ACGGTGAG,-0.135
6,CCATGGTA,-0.0465
7,CATCCTGA,0.0802
8,TGAACTAA,0.142
9,AATGTACC,-0.0693
10,CCTACTCA,-0.093
11,CGTTTCCC,-0.15
12,AAGTTATC,0.143
13,CTCGAGAG,-0.193
14,GGATAACC,-0.053
15,AGAGGGCG,-0.123
16,GACCTGAC,0.0633
17,ACAGTGAA,0.136
18,CCCAGTAG,-0.0146
19,GGCATAAA,0.167
20,AAAGACAG,0.247
21,GTAGGAGA,-0.0724
22,GAGGCCCA,-0.28
23,AGCCCCTA,-0.253
24,AAGCGGAG,-0.121
25,CGCACAGA,0.0461

row,Sequence,PBM E-score
1,CGCGACAG,-0.108
2,CTCCGTAA,0.0782
3,CCCATCTC,-0.155
4,AAGATCTT,0.206
5,CTCTGCAG,-0.135
6,CTTTTTAA,0.114
7,CGGCGTCA,-0.237
8,CGATTTCA,-0.0921
9,CAGGACTA,-0.0422
10,CAACTATG,0.102
11,CCCTTGAC,-0.114
12,CTCGTTTA,-0.00935
13,CGTTTCCA,-0.0573
14,CGGAACTC,0.0371
15,CCAGCCGA,-0.209
16,ACTATCAA,0.248
17,ACAAGCGG,0.0936
18,ATCATGAC,0.0647
19,ATGAGAAC,0.108
20,GATGTCAC,0.066
21,ACCGTAAT,-0.0273
22,AATAGACC,-0.0276
23,TCTAATCA,0.188
24,CATGCTTA,-0.0397
25,AAGCGTCT,-0.119

row,Sequence,PBM E-score
1,CTACGTAG,-0.0135
2,GGATTTTA,0.092
3,CACCGTAC,-0.0902
4,AAATCCTG,0.163
5,CCTAAAGA,-0.0735
6,GAGATTCA,0.105
7,TGGAAACA,-0.0929
8,ACGAACAC,0.0804
9,AGTGGCTA,-0.183
10,GTAATCGA,0.0467
11,CAATGACG,-0.158
12,TATTATCA,0.153
13,AGGCCTTA,-0.163
14,ATGTAAGC,0.125
15,GCCTATCA,0.0241
16,ATGTGATC,0.0552
17,CGTATAAA,0.291
18,ATCACTTG,0.0311
19,GCGGGGGA,-0.21
20,GGTCGCAA,-0.054
21,CCATCACC,-0.146
22,ATATAGGA,0.133
23,CTCCTTTC,-0.119
24,CAGCGTAC,-0.237
25,AAGCTTTA,0.0466

row,Sequence,PBM E-score
1,ACACTTCC,0.0571
2,ACCGTGTC,-0.117
3,CCAAGGCA,-0.143
4,GACCCAAC,-0.0289
5,CTCCGGCA,-0.0382
6,GGGTCGAC,-0.206
7,AATGTCGC,-0.145
8,ATTTCTCA,0.192
9,TCAAATAA,0.202
10,AGGGTATA,0.192
11,ATGGGTTC,-0.15
12,ACTGTAGA,0.127
13,CAGGTCGC,-0.187
14,CGGGGTAC,-0.401
15,GAGGGTAA,-0.0946
16,ACCTCGGG,-0.309
17,GTTTTATA,0.0686
18,ACGATTCT,0.104
19,ACTCAATG,0.0914
20,GACAGATC,0.031
21,ACAAAACC,0.198
22,CATTTATC,0.278
23,AACTCCCT,-0.021
24,GACGACCC,-0.306
25,CTGCTCTC,-0.153

row,Sequence,PBM E-score
1,GCATCTAC,0.0696
2,CGCCGTAC,-0.0656
3,ACTCCGAG,-0.00106
4,CAACGCCG,-0.229
5,CCACAAGC,-0.184
6,GACTCAGC,-0.1
7,ACTCAGTA,0.27
8,AAGGCACC,-0.199
9,CTACTCAA,0.248
10,CCGTGTAA,0.0401
11,CAGCTTTC,-0.13
12,GCGGGGCA,-0.227
13,AACAGAAG,0.00835
14,CTACGCGC,-0.048
15,GCGATTGA,0.0814
16,TAAGGCCA,-0.154
17,GCGGTGAC,-0.0896
18,TCTGCGAA,-0.214
19,ACAGTTCT,0.0471
20,CGAGCAAG,-0.15
21,ACGTGTCA,-0.0785
22,AAGTGAGA,0.017
23,CGCTCGTA,0.0896
24,TAACTGCA,0.162
25,CTACAATA,0.164

row,Sequence,PBM E-score
1,TAGCGGGA,-0.122
2,GCTACAAC,0.0399
3,TCGATGAA,0.0419
4,ATCATCAA,0.246
5,ATTCTCTC,-0.0621
6,GTCCCTCA,-0.31
7,CGGTCTCA,-0.125
8,GTCAAGCA,-0.187
9,AGTTAAAT,0.121
10,ATTCAACC,-0.0157
11,AGTCGCTG,-0.108
12,TAAGTGGA,0.152
13,CCGGAAGC,0.0751
14,ATCTCCAA,0.198
15,ACAGTAAG,0.0874
16,CTATATTC,0.215
17,ACGAGGCT,-0.0943
18,CTAATGGA,0.0991
19,CCCCGATC,-0.36
20,GGGCATGA,-0.261
21,GTGTTTTA,0.127
22,CCTCCGGA,-0.0985
